This is one part of the list.

This note sets out measurements from a collection of fitness landscapes (doi:10.1126/science.1257360).

B1: PhoQ; a variant is named by its letters at X, in order, P23837 (parent)
chain: MKKLLRLFFPLSLRVRFLLATAAVVLVLSLAYGMVALIGYSVSFDKTTFRLLRGESNLFYTLAKWENNKLHVELPENIDKQSPTMTLIYDENGQLLWAQRDVPWLMKMIQPDWLKSNGFHEIEADVNDTSLLLSGDHSIQQQLQEVREDDDDAEMTHSVAVNVYPATSRMPKLTIVVVDTIPVELKSSYMVWSWFIYVLSANLLLVIPLLWVAAWWSLRPIEALAKEVRELEEHNRELLNPATTRELTSLVRNLNRLLKSERERYDKYRTTLTDLTHSLKTPLXXLQXXLRSLRSEKMSVSDAEPVMLEQISRISQQIGYYLHRASMRGGTLLSRELHPVAPLLDNLTSALNKVYQRKGVNISLDISPEISFVGEQNDFVEVMGNVLDNACKYCLEFVEISARQTDEHLYIVVEDDGPGIPLSKREVIFDRGQRVDTLRPGQGVGLAVAREITEQYEGKIVAGESMLGGARMEVIFGRQHSAPKDE

Variants of B1 are the subject of this assay. Description: enrichment ratio after two sorts for PhoP signalling (ratio (wild type AVST 3.29)); higher = more functional. The note with it: with PhoP (E. coli).
As to DSGA, the enrichment ratio was at most 0.25.

Take SPRS: the enrichment ratio was at most 0.25.

Turning to MQIR, the enrichment ratio is at most 0.25.

EMVC: the enrichment ratio is at most 0.25.

Turning to LQVM, the enrichment ratio is at most 0.25.

For WLMP, the enrichment ratio was at most 0.25.

On to DCMQ, for which the enrichment ratio was at most 0.25.

For GCHG, the enrichment ratio is at most 0.25.

Take PVIN: the enrichment ratio was at most 0.25.

Regarding FGGQ, the enrichment ratio is 3.04.

On to WCFP, for which the enrichment ratio is at most 0.25.

Take KFCK: the enrichment ratio is at most 0.25.

Consider VFTC, for which the enrichment ratio is at most 0.25.

Turning to ADSA, the enrichment ratio is at most 0.25.

As to KMRG, the enrichment ratio is at most 0.25.

As to HYGL, the enrichment ratio is at most 0.25.

As to VVFM, the enrichment ratio is at most 0.25.

In the case of TFKY, the enrichment ratio was at most 0.25.

VDKL: the enrichment ratio was at most 0.25.

As to REMD, the enrichment ratio was at most 0.25.

Turning to HYYK, the enrichment ratio was at most 0.25.

NTNP: the enrichment ratio is at most 0.25.

YVPS: the enrichment ratio is at most 0.25.

Take GVVS: the enrichment ratio was at most 0.25.

Take PQQS: the enrichment ratio was at most 0.25.

On to DAIP, for which the enrichment ratio was at most 0.25.

Regarding AQDQ, the enrichment ratio was at most 0.25.

As to HITR, the enrichment ratio was at most 0.25.

As to YWAH, the enrichment ratio was found to be 0.301.

In the case of SWCG, the enrichment ratio was at most 0.25.

In the case of NGAI, the enrichment ratio was at most 0.25.

Turning to SQPG, the enrichment ratio was at most 0.25.

For YNGC, the enrichment ratio came out at 0.307.

For the variant WDVQ, the enrichment ratio is at most 0.25.

For the variant ASHS, the enrichment ratio is at most 0.25.

Consider STPI, for which the enrichment ratio stood at 10.9.

On to FPDT, for which the enrichment ratio was at most 0.25.

Regarding VQFT, the enrichment ratio was at most 0.25.

On to ISQS, for which the enrichment ratio is at most 0.25.

With WVMG, the enrichment ratio was at most 0.25.

Consider AGHL, for which the enrichment ratio amounted to 0.911.

As for NKTG, the enrichment ratio was at most 0.25.

For the variant SLNK, the enrichment ratio was at most 0.25.

In the case of MELY, the enrichment ratio was at most 0.25.

As for IMHG, the enrichment ratio was at most 0.25.

YLQK: the enrichment ratio was at most 0.25.

As to TQTH, the enrichment ratio was 6.85.

In the case of QNTL, the enrichment ratio was at most 0.25.

Take GNWP: the enrichment ratio was at most 0.25.

FQNL: the enrichment ratio was at most 0.25.

MAGC: the enrichment ratio is 5.37.

In the case of SGAK, the enrichment ratio was at most 0.25.

With ESCT, the enrichment ratio was at most 0.25.

For the variant VADK, the enrichment ratio was at most 0.25.

As for TTDC, the enrichment ratio was determined as 2.92.

For MPWL, the enrichment ratio was at most 0.25.

On to WYTF, for which the enrichment ratio was at most 0.25.

For the variant PAIP, the enrichment ratio was at most 0.25.

On to KVRL, for which the enrichment ratio was at most 0.25.

Consider SVQF, for which the enrichment ratio amounted to 6.23.

Turning to PKLR, the enrichment ratio was at most 0.25.

Turning to RAVR, the enrichment ratio was at most 0.25.

For YTAM, the enrichment ratio was at most 0.25.

Turning to AEQD, the enrichment ratio was at most 0.25.

SPDE: the enrichment ratio was at most 0.25.

Turning to TWRA, the enrichment ratio is at most 0.25.

As for LFTG, the enrichment ratio was at most 0.25.

In the case of ADLM, the enrichment ratio came to 12.7.

For GCCQ, the enrichment ratio turned out to be 8.03.

Consider PWVA, for which the enrichment ratio was at most 0.25.

For DSMH, the enrichment ratio was at most 0.25.

As for HPDL, the enrichment ratio was at most 0.25.

With SSSG, the enrichment ratio is 8.68.

On to QAIN, for which the enrichment ratio was at most 0.25.

Consider VVDR, for which the enrichment ratio was found to be 1.03.

In the case of DIAD, the enrichment ratio was at most 0.25.

As to NMSI, the enrichment ratio was at most 0.25.

With GMQY, the enrichment ratio is at most 0.25.

Take KLMD: the enrichment ratio is at most 0.25.

As for AWID, the enrichment ratio was at most 0.25.

In the case of IRTP, the enrichment ratio is at most 0.25.

For the variant WHMW, the enrichment ratio was at most 0.25.

Regarding PHSD, the enrichment ratio is at most 0.25.

Turning to PCWW, the enrichment ratio was at most 0.25.

Consider AWWL, for which the enrichment ratio is at most 0.25.

In the case of DWKG, the enrichment ratio is at most 0.25.

On to LGES, for which the enrichment ratio was at most 0.25.

With LHIK, the enrichment ratio stood at 1.49.

As for IFAL, the enrichment ratio was at most 0.25.

On to MLSE, for which the enrichment ratio is at most 0.25.

Take DHHH: the enrichment ratio is at most 0.25.

On to PQPK, for which the enrichment ratio was at most 0.25.

As to IWSH, the enrichment ratio is at most 0.25.

In the case of EQTR, the enrichment ratio is at most 0.25.

Turning to VQHC, the enrichment ratio was at most 0.25.

Turning to PAAD, the enrichment ratio was at most 0.25.

As to QHGI, the enrichment ratio is at most 0.25.

As to DQCR, the enrichment ratio is at most 0.25.

Turning to LCCC, the enrichment ratio is at most 0.25.

With MHTY, the enrichment ratio is at most 0.25.

As for AMFQ, the enrichment ratio was at most 0.25.

For the variant WDNC, the enrichment ratio is at most 0.25.

As for EFAS, the enrichment ratio was at most 0.25.

In the case of IIVP, the enrichment ratio was at most 0.25.

With SDPV, the enrichment ratio is at most 0.25.

Consider MRQL, for which the enrichment ratio was at most 0.25.

In the case of RYNM, the enrichment ratio was at most 0.25.

Turning to DIRT, the enrichment ratio is at most 0.25.

Turning to GIAN, the enrichment ratio worked out at 8.67.

LISK: the enrichment ratio was at most 0.25.

For the variant NRTK, the enrichment ratio was at most 0.25.

Take VDFW: the enrichment ratio was at most 0.25.

For the variant SHVY, the enrichment ratio stood at 9.82.

Regarding RKIA, the enrichment ratio is at most 0.25.

VAGW: the enrichment ratio was at most 0.25.

With LWGD, the enrichment ratio was at most 0.25.

With MWDG, the enrichment ratio was at most 0.25.

NWSW: the enrichment ratio was at most 0.25.

Consider KPAM, for which the enrichment ratio is at most 0.25.

DAAN: the enrichment ratio was at most 0.25.

As for QVLF, the enrichment ratio was at most 0.25.

Turning to YWPK, the enrichment ratio was at most 0.25.

For HKYG, the enrichment ratio was at most 0.25.

Turning to KIGH, the enrichment ratio is at most 0.25.

Take DQAD: the enrichment ratio was at most 0.25.

In the case of LWFM, the enrichment ratio is at most 0.25.

Regarding GPPH, the enrichment ratio is at most 0.25.

As to YYPG, the enrichment ratio is at most 0.25.

As for APSK, the enrichment ratio was at most 0.25.

Take WIPW: the enrichment ratio was at most 0.25.

In the case of NKPN, the enrichment ratio was at most 0.25.

For MVVV, the enrichment ratio was at most 0.25.

For ECGV, the enrichment ratio was at most 0.25.

For RNFW, the enrichment ratio is at most 0.25.

Regarding FWWM, the enrichment ratio was at most 0.25.

With SFGL, the enrichment ratio was at most 0.25.

Take WIMC: the enrichment ratio was at most 0.25.

For DVIW, the enrichment ratio was at most 0.25.

For QNSY, the enrichment ratio was at most 0.25.

In the case of AHWR, the enrichment ratio was at most 0.25.

Regarding PIDL, the enrichment ratio is at most 0.25.

On to WVRD, for which the enrichment ratio was at most 0.25.

For the variant HMNQ, the enrichment ratio was at most 0.25.

Turning to GSAP, the enrichment ratio is at most 0.25.

For DMVL, the enrichment ratio was at most 0.25.

As for DPCW, the enrichment ratio is at most 0.25.

As to SRMG, the enrichment ratio was at most 0.25.

DSSN: the enrichment ratio was at most 0.25.

In the case of MFNK, the enrichment ratio was at most 0.25.

Turning to HFYN, the enrichment ratio is at most 0.25.

As to GWQW, the enrichment ratio is at most 0.25.

For PAID, the enrichment ratio was at most 0.25.

As to DFIK, the enrichment ratio was at most 0.25.
